According to PMC4336329 (PLoS ONE, 2015):
The campaign covered roughly 310,000 compounds. About 14,000 (4.5%) showed an effect of 50% or more. Effects have a minus sign here. This is one part of the list.

These molecules were tested against human ether-à-go-go-related gene (hERG) potassium channel (human, UniProt Q12809) (assay: primary screen, population patch clamp on CHO cells stably expressing hERG).
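Further: peak tail current of the secondary pulse compared with the same well before compound.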

Sequence of human ether-à-go-go-related gene (hERG) potassium channel (Q12809 whole entry, looked up): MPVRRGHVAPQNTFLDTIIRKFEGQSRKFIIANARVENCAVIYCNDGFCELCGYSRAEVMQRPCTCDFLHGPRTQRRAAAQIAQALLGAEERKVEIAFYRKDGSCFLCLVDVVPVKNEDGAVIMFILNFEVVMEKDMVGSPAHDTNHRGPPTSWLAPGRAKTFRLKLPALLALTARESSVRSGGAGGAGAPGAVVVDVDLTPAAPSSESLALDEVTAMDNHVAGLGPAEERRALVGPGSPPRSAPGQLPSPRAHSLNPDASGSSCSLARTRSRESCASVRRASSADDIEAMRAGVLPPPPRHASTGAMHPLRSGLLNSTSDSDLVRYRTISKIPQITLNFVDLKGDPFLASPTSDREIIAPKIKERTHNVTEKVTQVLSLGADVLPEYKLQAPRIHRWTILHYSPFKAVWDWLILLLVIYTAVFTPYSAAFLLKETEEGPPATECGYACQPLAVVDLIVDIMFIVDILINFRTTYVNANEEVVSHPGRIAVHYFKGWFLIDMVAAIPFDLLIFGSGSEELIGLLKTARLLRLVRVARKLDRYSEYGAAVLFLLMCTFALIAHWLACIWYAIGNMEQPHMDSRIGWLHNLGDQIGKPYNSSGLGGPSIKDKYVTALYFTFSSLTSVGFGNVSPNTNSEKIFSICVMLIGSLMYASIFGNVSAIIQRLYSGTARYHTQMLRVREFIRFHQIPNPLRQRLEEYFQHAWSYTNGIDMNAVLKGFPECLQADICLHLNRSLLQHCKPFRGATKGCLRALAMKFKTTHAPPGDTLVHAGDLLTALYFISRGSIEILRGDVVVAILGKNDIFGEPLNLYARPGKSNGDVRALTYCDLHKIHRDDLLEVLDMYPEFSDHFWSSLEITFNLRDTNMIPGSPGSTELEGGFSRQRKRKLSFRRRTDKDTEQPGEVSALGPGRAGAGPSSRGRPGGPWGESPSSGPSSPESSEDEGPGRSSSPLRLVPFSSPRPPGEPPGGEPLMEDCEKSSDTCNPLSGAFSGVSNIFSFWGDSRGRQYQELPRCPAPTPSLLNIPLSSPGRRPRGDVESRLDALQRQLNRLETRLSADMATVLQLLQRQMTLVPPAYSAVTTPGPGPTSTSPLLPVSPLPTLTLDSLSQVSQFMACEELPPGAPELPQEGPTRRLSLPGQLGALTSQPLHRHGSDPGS

| SMILES | hERG current change (%, negative = inhibition) at 10uM [%] |
| --- | --- |
| COc1cccc(CCNc2ccc(N3C(=O)CC(C)C3=O)cc2[N+](=O)[O-])c1 (centres unmarked) | 11.6 |
| COc1ccc(C(=O)NCCOc2ccccc2Cl)c(OC)c1OC | -11.1 |
| CCOC(=O)C1CCN(S(=O)(=O)c2ccc(-c3ccc(=O)[nH]n3)o2)CC1 | -39.4 |
| O=C(C1CCN(Cc2ccccc2O)CC1)N1CCN(Cc2ccc3c(c2)OCO3)CC1 | -23 |
| COCC(=O)Nc1nnc(CCc2ccccc2)s1 | -1.23 |
| N/C(CN1CCCC1=O)=N\OC(=O)c1ccccc1Cl | -12.1 |
| O=C(COc1ccccc1)N1CCN=C1c1ccccc1 | -77.5 |
| O=C(/C=C/c1ccco1)NC(=S)Nc1ccc(N2CCOCC2)c(Cl)c1 | -9.29 |
| CS(=O)(=O)N(CC(=O)O)c1cccc(Cl)c1 | 8.91 |
| CN(C(=O)CSc1nc(-c2ccccc2)cn1N)C(c1ccccc1)c1ccccc1 | 5.96 |
| CCCCCC(=O)Oc1cccc(N2C(=O)C3CCCCC3C2=O)c1 (centres unmarked) | 28.1 |
| Cc1cccc(Nc2nnc(SCC(=O)N(C)C3CCS(=O)(=O)C3)s2)c1C (centres unmarked) | 6.11 |
| Cc1ccc(-c2nnc(-c3ccccc3)c(N3CCOCC3)n2)cc1 | -30 |
| Oc1ccc(C[C@H]2CNCCN2CCc2cc(C(F)(F)F)cc(C(F)(F)F)c2)cc1 | -42.2 |
| CCC(Sc1nc2ccc(C)cc2[nH]1)C(=O)O (centres unmarked) | 5.08 |
| CC(C)(C)C(=O)CSc1nc2ncc(Br)cc2[nH]1 | 1.79 |
| Cc1nnc(SCC(=O)Nc2ccc(N3CCN(S(C)(=O)=O)CC3)cc2)o1 | 13.8 |
| Clc1ccc(-c2csc(N/N=C/c3ccc4c(c3)OCO4)n2)cc1 | -4.67 |
| COc1ccc(NC(=O)CSc2nnc(C3CCCCC3)n2-c2ccccc2)cc1 | -24.3 |
| Br.O=C(Cn1c(NCCCO)nc2ccccc21)c1ccc([N+](=O)[O-])cc1 | -33.3 |
| COC(=O)c1ccc(-n2c(C)nc(=O)c(-c3ccccc3)c2C)cc1 | -0.769 |
| O=C(N/N=C/c1ccco1)C1CCCC1 | 22.1 |

| SMILES | hERG current change (%, negative = inhibition) at 10uM [%] |
| --- | --- |
| COc1cccc(CNC(=O)Cc2c(C(=O)O)[nH]c3ccccc23)c1 | 8.83 |
| CCOC(=O)C1(CCCc2ccccc2)CCN(C(=O)C(C)n2cncn2)CC1 (centres unmarked) | -29 |
| Cc1nc2cc(-c3ccc(Br)cc3)[nH]n2c(=O)c1Cl | 20 |
| O=C(NCc1ccc(F)cc1)C1CCC(=O)N1CCc1ccccc1 (centres unmarked) | -24 |
| CC1CCN(Cc2c(C(=O)N/N=C/c3ccc(C(C)C)cc3)nnn2-c2nonc2N)CC1 | 20.2 |
| CC(=O)Nc1ccc(S(=O)(=O)Nc2ccc(NC(=O)c3ccco3)cc2)cc1 | 5.13 |
| CC1(C)Cc2c(cnn2-c2ccc(F)cc2)C(NC(=O)C2=NNC(=O)CC2)C1 (centres unmarked) | -68.4 |
| CCCCNC(=O)Nc1ccccc1CC | 23.6 |
| O=S(=O)(c1ccccc1)N1CCN(CCO)CC1 | -6.08 |
| CCOc1ccc(C(=O)NCC(=O)N2CCN(c3ccc(C(F)(F)F)cn3)CC2)cc1 | -7.32 |
| C=C(C)[C@@H]1CC[C@]2(C(=O)O)CC[C@]3(C)[C@H](CC[C@@H]4[C@@]5(C)CC[C@H](O)C(C)(C)[C@@H]5CC[C@]43C)[C@@H]12 | -8.59 |
| Nc1ccccc1C#Cc1cnccn1 | 9.89 |
| CC1CN(CCCCOc2ccc(F)cc2)CC(C)O1.O=C(O)C(=O)O (centres unmarked) | -42.7 |
| NC(=O)COC(=O)c1ccccc1Oc1ccccc1 | 6.04 |
| S=C(NCCc1ccccc1)Nc1ccccn1 | 17.8 |
| COc1ccc(S(=O)(=O)NCC2CCC(C(=O)NCc3ccco3)CC2)cc1 (centres unmarked) | 20.2 |
| N#Cc1ccncc1Sc1ccc(Cl)cc1 | -6.67 |
| CN(C)C(=O)c1cc2cc(Br)ccc2s1 | -3.77 |
| C/C(=N\NC(=O)c1nnn(-c2nonc2N)c1CN1CCc2ccccc21)c1ccccc1O | 12.8 |
| CCCCCN(C(=O)NC(=O)Nc1ccccc1C)S(C)(=O)=O | -1.9 |
| CCN(CC)S(=O)(=O)c1ccc(Cl)c(NC(=O)COC(=O)c2cc(-c3ccccc3Cl)nc3ccccc23)c1 | 16.7 |
| O=C(O)Cn1c(SCCOc2ccccc2)nc2ccccc21 | 0.876 |
